# Test results from paper PMC6919601, “Identification of Plasmodium dipeptidyl aminopeptidase allosteric inhibitors by high throughput screening” (PLoS ONE, 2019).
# Where “and” joins values, the source holds several entries; their conditions need not be identical. Identical values can stand only once. About 230 (0.21%) of roughly 110,000 compounds showed an effect of 50% or more. Some of the results follow.
# Target: DPAP1 (Plasmodium falciparum, UniProt Q8IIJ9)
# Experiment: primary screen, percent inhibition; read by cleavage of a fluorogenic dipeptide substrate; higher = more effect of the substance
# Parameters: species or system P. falciparum D10 trophozoite lysates; single well
# 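Note: 30 min substrate incubation versus DMSO and 10 µM JCP410 controls.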
# Sequence of DPAP1 (Q8IIJ9 whole entry, looked up): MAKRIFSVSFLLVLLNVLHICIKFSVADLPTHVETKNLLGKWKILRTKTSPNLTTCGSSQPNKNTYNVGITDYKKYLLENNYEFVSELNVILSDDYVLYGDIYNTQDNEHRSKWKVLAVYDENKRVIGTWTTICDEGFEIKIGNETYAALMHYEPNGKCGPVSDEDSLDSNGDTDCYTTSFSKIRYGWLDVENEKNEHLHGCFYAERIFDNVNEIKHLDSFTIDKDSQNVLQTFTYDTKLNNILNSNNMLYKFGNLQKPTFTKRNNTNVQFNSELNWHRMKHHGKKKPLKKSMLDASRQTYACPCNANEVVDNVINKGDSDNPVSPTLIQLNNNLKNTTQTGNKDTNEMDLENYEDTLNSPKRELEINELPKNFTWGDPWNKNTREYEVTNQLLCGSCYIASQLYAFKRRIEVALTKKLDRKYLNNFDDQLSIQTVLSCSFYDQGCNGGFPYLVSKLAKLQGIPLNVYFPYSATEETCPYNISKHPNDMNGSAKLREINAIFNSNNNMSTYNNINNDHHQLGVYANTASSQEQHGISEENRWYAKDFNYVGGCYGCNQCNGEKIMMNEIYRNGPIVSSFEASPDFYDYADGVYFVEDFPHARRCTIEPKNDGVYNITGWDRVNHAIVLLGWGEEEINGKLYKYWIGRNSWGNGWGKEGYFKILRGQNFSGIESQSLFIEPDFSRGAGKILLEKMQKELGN
row,Compound,% Inhibition @ 10 uM
1,CCOc1ccc(CCNc2nc3cc(OC)c(OC)cc3c3nc(-c4cccnc4)nn23)cc1,0.981%
2,Cc1ccc(C(C)C)cc1OCc1nc2c3cnn(-c4cccc(F)c4)c3ncn2n1,-1.11%
3,O=C(O)c1ccc(-n2nnnc2Oc2ccccc2C(=O)N2CCOCC2)cc1,3.73%
4,COc1cc(-c2cc(NC(=O)c3noc4c3COc3ccccc3-4)on2)cc(OC)c1OC,4.86%
5,COc1ccc(OC)c(CNC(=O)Cn2ncc3c2-c2ccccc2OC3)c1,2.6%
6,Cc1nccn1C(=O)c1cc2c(O)nc3ccccc3c2s1,-2.16%
7,COc1cccc(N(CC(=O)Nc2ccc(OC)c(OC)c2)S(C)(=O)=O)c1,3.72%
8,CC(C)(C)c1[nH]nc2c1C(c1ccc(F)c(F)c1)C(C#N)=C(N)O2 (centres unmarked),-8.3%
9,Cc1ccc(CN2C(=O)N/C(=C\c3ccc(-c4ccc(C(=O)O)cc4C)o3)C2=O)cc1,-3.14%
10,CCn1cc(/C=C(\NC(=O)c2ccccc2)C(=O)NCCCn2ccnc2)c2ccccc21,-5.36%
11,CC1=C(C#N)C(c2ccccc2)C2=C(O)CC(C)(C)CC2=N1 (centres unmarked),2.41%
12,CCN1CCCC1CNC(=O)CCNC(=O)Cn1cnc2sc3c(c2c1=O)CCCC3 (centres unmarked),-2.4%
13,CN(C)/C=N/c1ccc2nonc2c1,-4.5%
14,Cc1nn(C)cc1C#Cc1ccccc1,3.31%
15,Cc1ccc2[nH]c(C(O)C(O)c3nc4cc(C)ccc4[nH]3)nc2c1 (centres unmarked),-1.11%
16,COc1cc(CCNCc2c(C(=O)O)c(C)n(Cc3cccc(Cl)c3)c2C)cc(OC)c1OC,6.02%
17,O=C1NC(=O)C(Cc2ccccc2)(Cc2ccccc2)C(=O)N1,-8.2%
18,Cc1ccc(C2c3c(oc4ccccc4c3=O)C(=O)N2c2nc(C)c(C)s2)cc1 (centres unmarked),-1.86%
19,N#CC1=C(N)Oc2cc(O)ccc2C12C(=O)Nc1ccc(Br)cc12 (centres unmarked),-1.74%
20,CN(C)CCN1C(=O)C2C(c3ccccc3)C=CC(c3ccccc3)C2C1=O (centres unmarked),0.408%
21,Cc1cc(C)n(-c2nc3cc(Cl)c(Cl)cc3n3c(C)nnc23)n1,-0.602%
22,Cc1ccc2c(c1)-c1onc(C(=O)N(CCN(C)C)Cc3ccco3)c1CO2,-7.84%
23,CCCSc1ccccc1NC(=O)c1sc2nc(-c3ccncc3)ccc2c1N,-3.71%
24,C=CCSc1nnc(NC(=O)c2cc(=O)c3cc(Cl)ccc3o2)s1,-1.47%
25,CCC(NC(=O)Cc1ccccc1)C(=O)O (centres unmarked),4.82%
26,Cc1cc(F)ccc1NC(=O)Cn1nc(C(F)(F)F)cc1C1CC1,-3.18%

row,Compound,% Inhibition @ 10 uM
1,Cc1ccc2c(c1)C1CN(C)CCC1N2 (centres unmarked),0.634% and -0.127%
2,CCOc1ccc(C2C3=C(O)CC(C)(C)CC3=NC(C)=C2C(=O)OC)cc1 (centres unmarked),-4.77%
3,CC1CC(C)CN(Cc2nc3c(c(=O)n(C)c(=O)n3C)n2Cc2ccc(Cl)cc2Cl)C1 (centres unmarked),-4.14%
4,O=C(c1ccccc1Br)N1CCN(c2ncccn2)CC1,3.32%
5,CC1(C)CC(=O)C(/C=N/Cc2ccco2)=C(O)C1,-2.27%
6,Cc1cc2nc3s/c(=C/c4ccccc4)c(=O)n3c2cc1C,-1.37%
7,N#CC1(NC(=O)[C@H]2CCCC[C@@H]2CBr)CC1,1.7%
8,C=CCN1C(=O)c2[nH]nc(-c3ccccc3O)c2C1c1ccc(O)cc1 (centres unmarked),0.00706%
9,CCC(=O)NCCCOc1ccccc1,4.86%
10,COc1cccc(-c2cn3c(n2)sc2cc(C(=O)N4CCCCCC4)ccc23)c1,17.6%
11,Cc1ccccc1CN1CCN(CC(=O)NC2CCCCCCC2)C1=O,0.402%
12,C=CCC(CN)(CC=C)c1ccc(OC)c(OC)c1,-1.71%
13,CC(CCc1ccccc1)NC(=O)Cc1noc2ccccc12 (centres unmarked),1.23%
14,Cc1cc(C)c2nc(N3CCC(C(=O)N4CCC(C)CC4)CC3)sc2c1,-1.58%
15,Cc1ccc(NC(=O)c2ccc(OC(C)C)cc2)nc1,5.61%
16,COc1ccc(C(=O)Nc2ccc(CN3CCOCC3)cc2)cc1Cl,-3.39%
17,CN(CC1CCCO1)C1CCN(S(=O)(=O)c2csc(C(N)=O)c2)CC1 (centres unmarked),-1.23%
18,Nc1nc2cc(Cl)ccc2n1CCCO,0.778%
19,COC(=O)c1ccc(OCC2c3cc(OC)c(OC)cc3CCN2C(=S)NC(C)(C)C)cc1 (centres unmarked),-1.2%
20,COCCN1C(=O)c2[nH]nc(-c3ccccc3O)c2C1c1cc(Br)c(O)c(OC)c1 (centres unmarked),3.62%
21,O=C(CNC(=S)N1CC2CC(C1)c1cccc(=O)n1C2)NCc1ccc(F)cc1 (centres unmarked),-4.06%
22,CN(CCCNc1nc2ccccc2c2nc(-c3cccnc3)nn12)Cc1ccccc1,-4.21%
23,Cc1ccc(S(=O)(=O)N(CC(=O)NCc2cccnc2)c2cccc(Cl)c2C)cc1,-9.75%
24,CCOc1ccc(NC(=O)CN2CCCc3ccccc32)cc1,2.44%
25,CCOC(=O)C1=C(C)OC(N)=C(C#N)C1c1ccoc1 (centres unmarked),1.4%
26,CCOc1ccc(-c2nonc2NC(=O)c2cccc(Cl)c2)cc1,9.74%

row,Compound,% Inhibition @ 10 uM
1,COc1cccc(CN2CCN(C3CCN(Cc4ccccc4)CC3)CC2)c1OC,-9.72%
2,O=C(O)C1CCCCC1C(=O)NC1CCCCCC1 (centres unmarked),1.15%
3,CCOc1ccccc1C(=O)NCCc1c(C)[nH]c2ccccc12,1.1%
4,COc1ccc(OC)c(-c2cc(C(=O)N3CCCCC3)no2)c1,-1.84%
5,CC1CCc2c(sc3nc(-c4ccccc4)oc(=O)c23)C1 (centres unmarked),2%
6,O=C(NCc1ccccn1)C(c1ccccc1)N1Cc2ccccc2C1=O (centres unmarked),-8.42%
7,O=[N+]([O-])c1cccc(-c2cnc3ccccc3n2)c1,-1.45%
8,N#Cc1c(N)ccn(-c2ccc(Cl)cc2)c1=O,1.04%
9,O=C(C1=C(O)C(=O)N(CCc2ccc(O)cc2)C1c1ccccc1F)c1ccccc1 (centres unmarked),0.231%
10,C=Cc1ccc(Cn2c(C(=O)O)c(CNC3CCCCCC3)c3ccc(OC)cc32)cc1,7.63%
11,O=C(c1cc2ccccc2cc1OCC(O)CN1CCCCC1)N1CCCCC1 (centres unmarked),-3.4%
12,CSc1nc(C)cc(C)c1CN,-3.04%
13,CCCN1CCN(C(=O)Cn2ncc3c4ccccc4n(Cc4ccccc4)c3c2=O)CC1,0.137%
14,COc1ccc(CCNC(=O)Cn2cnc3c(nc4n3CCCCC4)c2=O)cc1OC,2.13%
15,CCOC(=O)c1c(NC(=O)c2ccc3ccccc3c2)sc(C(=O)OC)c1C,-2.98%
16,CCCC1=C(C(=O)OCC)C(c2ccc(F)cc2F)C(C#N)=C(N)O1 (centres unmarked),-1.98%
17,N#CCNC(=O)[C@H](CC1CCCCC1)NC(=O)C1=CCCC1,-5.21%
18,Cc1oc(-c2ccccc2Cl)nc1CSCC(=O)NCc1ccco1,-3.08%
19,CN(Cc1ccccc1)C(=O)c1cc2c(s1)-c1ccccc1S(=O)(=O)C2,-2.17%
20,O=C(CC1CCCCC1)Nc1c2c(nn1-c1cccc(Cl)c1)CSC2,3.5%
21,CSCCCN1CCCC(C(N)=O)C1 (centres unmarked),-1.21%
22,Cc1cccc(Oc2nc3ccccn3c(=O)c2/C=C(\C#N)C(=O)NCC2CCCO2)c1C (centres unmarked),-5.34%
23,CC(Sc1c[nH]c2ccccc12)C(=O)O (centres unmarked),1.88%
24,CC1CCc2c(sc(N)c2C(=O)Nc2ccc(Cl)cc2)C1 (centres unmarked),-4.89%
25,CC(=O)CSc1nc2ccccc2s1,3.01%
26,CCOC(=O)c1c(NC(C)=O)sc2c1CCC/C2=N\OC(=O)c1cc(OC)c(OC)c(OC)c1,-1.4%

row,Compound,% Inhibition @ 10 uM
1,COCCn1c(SCC(=O)N2CCCC2)nnc1-c1c[nH]c2ccccc12,-3.1%
2,COc1ccc(NCc2cc(Cl)ccc2OC)cc1,5.39%
3,Cc1c(CN2CCCC3CCCCC32)c(=O)n(-c2ccccc2)n1C (centres unmarked),5.2%
4,O=S1(=O)CCC(S(=O)(=O)NCc2ccccc2)C1 (centres unmarked),-2.77%
5,CCN1CCN(c2c(C(=O)c3ccccc3)cnc3ccc(OC)cc23)CC1,-2.18%
6,COc1ccc(C(=O)Nc2ccc3[nH]c4c(c3c2)CCCC4)cc1OC,1.37%
7,CCO/C(O)=C1/C(C)=Nc2nc3ccccc3n2C1c1cccc(F)c1 (centres unmarked),-1.62%
8,CCOC(=O)NC(=O)NCCN1CCOCC1,-0.403%
9,COc1ccc(CCNC(=O)CN2C(=O)CSc3ncccc32)cc1OC,-2.37%
10,Cc1onc(-c2c(Cl)cccc2Cl)c1C(=O)Nc1sc(C)c(C)c1C(N)=O,2.03%
11,Cc1c(Cl)cccc1N(CC(=O)NCc1ccco1)S(=O)(=O)c1ccccc1,-13.5%
12,CC(C)C[C@H](NC(=O)c1cccc2[nH]ccc12)C(=O)NCC#N,-3.97%
13,CCC(=O)NC(=O)/C(C#N)=C/Nc1ccccc1OC,-4.75%
14,Cc1ccc(-c2nc3cc(N)ccc3o2)cc1,-7.01%
15,CC(C)/N=C(/NS(=O)(=O)c1ccc(Cl)cc1)C(C)C,10.1%
16,CN(Cc1ccccc1)S(=O)(=O)c1ccc2[nH]c3c(c2c1)CCCC3,7.46%
17,NC(=O)c1cc(S(=O)(=O)N2CCN(C(=O)c3ccco3)CC2)cs1,2.24%
18,COc1ccc(OCC(=O)Nc2c(C(=O)N3CCC(N4CCCCC4)CC3)oc3ccccc23)cc1,-2.16%
19,CC1=CC2=NC(=O)/C(=C\c3ccc4c(c3)OCO4)C(=N)N2O1,-3.23%
20,Cc1c(Cl)cccc1-c1ccc(C=O)o1,-0.597%
21,O=C(Nc1ccccc1F)c1ccc(F)cc1,-3.03%
22,Oc1nnc(/C=C/c2ccc(F)cc2)o1,0.032%
23,O=C(Nc1ccccc1C(F)(F)F)c1ccc2c(c1)C(=O)N(Cc1cccnc1)C2=O,-3.04%
